Measured values taken from the supplement of paper PMC12217912.
Some of the results follow. Sequences were assembled here from the parent chain. Inactive controls read about 0.05.

B1: TEV protease; numbered along this chain (parent)
chain: MGESLFKGPRDYNPISSSICHLTNESDGHTTSLYGIGFGPFIITNKHLFRRNNGTLVVQSLHGVFKVKDTTTLQQHLVDGRDMIIIRMPKDFPPFPQKLKFREPQREERICLVTTNFQTKSMSSMVSDTSCTFPSGDGIFWKHWIQTKDGQCGSPLVSTRDGFIVGIHSASNFTNTNNYFTSVPKNFMELLTNQEAQQWVSGWRLNADSVLWGGHKVFMVKPEEPFQPVKEATQL

Variants of: B1
Assay: raw area under fraction-flipped curve 0-4 h after induction (AUC4h, not background-subtracted), DNA-recorder readout of cleavage of the substrate (dimensionless); higher = more cleavage of the substrate by the protease variant
Details: temperature: 34 °C; time window: 0-4 h after rhamnose induction
Protocol: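 In vivo DNA recorder in E. coli TOP10(DE3) ΔrhaA at 34 °C. Each TEVp single-site mutant (parent TEVp 0) is paired with a single-site variant of the 7-mer TEVs (canonical ENLYFQ|S). The substrate sits between flexible linkers in a Bxb1-sfGFP-TEVs-SsrA fusion, so cleavage stabilises Bxb1 and speeds flipping of a recombination array, read by NGS. The value is the raw area under the fraction-flipped curve over 0-4 h after rhamnose induction (AUC4h), with ≥20 reads per time point. It is not background-subtracted; inactive controls average about 0.047.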
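Note: Bxb1 expression induced with 0.2% (w/v) L-rhamnose at OD600 near 0.5, cultures sampled hourly, flipped fraction per protease–substrate barcode pair counted by paired-end Illumina sequencing.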

| Variant | area with substrate ENLYCQS | area with substrate ENLYDQS | area with substrate ENLYEQS | area with substrate ENLYGQS | area with substrate ENLYHQS | area with substrate ENLYIQS | area with substrate ENLYKQS | area with substrate ENLYLQS | area with substrate ENLYNQS | area with substrate ENLYPQS | area with substrate ENLYQQS | area with substrate ENLYSQS | area with substrate ENLYTQS | area with substrate ENLYVQS | area with substrate ENLYWQS | area with substrate ENLYMQS | area with substrate ENLYRQS | area with substrate ENLYYQS |
| --- | --- | --- | --- | --- | --- | --- | --- | --- | --- | --- | --- | --- | --- | --- | --- | --- | --- | --- |
| G153H | 0.036 | 0.0485 | 0.0604 | 0.0492 | 0.0319 | 0.0286 | 0.0127 | 0.0467 | 0.048 | 0.0458 | 0.0396 | 0.0246 | 0.0463 | 0.0526 | 0.0525 | – | – | – |
| H47T | 0.0704 | 0.0637 | 0.0597 | – | 0.0661 | 0.0564 | 0.072 | 0.0528 | 0.0556 | 0.0434 | 0.0515 | 0.0755 | 0.0691 | 0.0626 | 0.0462 | 0.0748 | 0.0704 | 0.0693 |
| D91Y | 0.0728 | 0.0594 | – | 0.0723 | 0.0796 | – | – | – | – | 0.0821 | 0.0391 | 0.0911 | – | – | 0.0796 | 0.0744 | – | 0.0706 |
| K46G | 0.0695 | 0.0627 | 0.0642 | – | 0.064 | – | 0.0494 | 0.0734 | 0.0593 | 0.0661 | 0.0776 | 0.0627 | 0.0653 | 0.0852 | – | – | 0.0514 | – |
| P89R | 0.0757 | 0.0599 | 0.066 | 0.063 | 0.0635 | 0.0861 | 0.0599 | 0.0819 | 0.0662 | 0.0531 | – | 0.0671 | – | 0.0995 | 0.0673 | – | 0.061 | 0.0614 |
| L61I | 0.0827 | – | 0.0795 | – | 0.0879 | – | – | – | 0.0616 | – | 0.0574 | 0.041 | 0.0982 | 0.127 | – | 0.0679 | – | – |
| S182D | 0.0682 | – | – | – | 0.0618 | 0.0613 | 0.0175 | – | – | – | 0.0868 | – | – | 0.0626 | – | 0.0767 | 0.0488 | – |
| V57F | 0.0756 | 0.0492 | 0.0619 | 0.0571 | 0.0691 | 0.126 | 0.0623 | – | – | – | 0.0577 | 0.0768 | 0.123 | – | – | 0.103 | 0.0675 | 0.0674 |
| R50A | 0.0866 | 0.0649 | 0.0752 | – | 0.0724 | – | 0.051 | – | 0.0715 | 0.0551 | 0.0792 | 0.0785 | 0.0762 | – | 0.0564 | 0.0837 | 0.0627 | – |
| K216E | 0.0633 | 0.0614 | – | 0.055 | 0.0571 | – | – | – | 0.0622 | 0.0732 | – | 0.0761 | – | – | – | 0.0649 | – | – |
| M83N | 0.0533 | 0.0515 | 0.0515 | 0.0476 | 0.0508 | – | 0.0509 | 0.0634 | 0.0442 | 0.0469 | – | 0.0392 | – | 0.0616 | 0.0543 | 0.0429 | – | 0.0301 |
| F49T | 0.0528 | 0.0582 | 0.0698 | 0.0597 | 0.0393 | 0.0564 | 0.0596 | – | 0.0575 | 0.0655 | 0.0487 | – | – | 0.0567 | – | 0.096 | 0.0504 | – |
| V126D | 0.0652 | – | 0.0609 | 0.0902 | 0.0529 | 0.123 | 0.0442 | – | 0.0723 | – | 0.0658 | – | – | 0.122 | 0.0781 | – | 0.0671 | 0.0676 |
| M188H | 0.0374 | – | 0.0619 | 0.0737 | – | 0.16 | – | 0.0825 | – | 0.0786 | – | – | 0.0665 | – | 0.0807 | – | – | – |
